Measured values as given in PubChem BioAssay AID686979 (National Center for Advancing Translational Sciences (NCATS), 2013).
Out of some 420,000 compounds screened, about 50,000 (12%) were called active. This list was built around the results that the source calls inconclusive (neither active nor inactive); the mix of calls is not that of the screen. Calls follow the shape of the dose curve; as a rule, active = well fitted inhibition curve with a large enough effect; inconclusive = small, poorly fitted or top-dose-only effect; inactive = flat fitted curve, though single readings scatter. Potencies of inconclusive entries are left out as doubtful fits.

Test: qHTS for Inhibitors of human tyrosyl-DNA phosphodiesterase 1 (TDP1): qHTS in cells in presence of CPT; also: nearly all actives have a fitted effect of over 55% in size
Conditions: chicken DT40 Tdp1-/-;hTDP1 cells + 20 nM CPT, ATP luminescence, 48 h; activity change, negative = growth inhibition: at 46.2 µM (top of the series)
Outline: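 Chicken DT40 Tdp1-/- cells stably complemented with human TDP1 were seeded at 400 cells/well in medium containing 20 nM camptothecin, exposed to pin-transferred compounds, and grown at 37 °C for at least 48 hr. Viability was read as ATP luminescence.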
% is scaled to controls: 0 for no effect and ±100 for the full control effect; potency is read from the fitted curve at half-maximal effect; tags tell the direction and shape of the fitted curve.

For `COc1cccc(C(=O)O/N=C(\N)c2ccncc2)c1OC`, which Potency is on record?
The Potency was inconclusive [inhibitor, partial curve].

For `Cc1cc(C)c(C(=O)COC(=O)c2cccc(S(=O)(=O)NCc3ccccc3)c2)cc1C`, which Potency is on record?
The Potency was inconclusive [inhibitor, single point].

With `CC1(C)OC(=O)C(=NNc2ccc(Br)cc2)C(=O)O1` as the molecule, how does the Potency read?
The Potency was inconclusive [inhibitor, partial curve, poor fit].

Which Potency does the source give for `CC1CCCCN1CCCNC(=O)c1cc(Sc2ccc(Cl)cc2)nc2ccccc12` (stereo not drawn) here?
Its Potency is active: 18.4 µM.

Which Potency does the source give for `Cc1ccccc1N(C(=O)c1cccs1)c1nc2ccccc2s1` here?
The Potency was active: 23.1 µM.

For `O=C(CSc1nc(-c2ccc(F)cc2)cc(C(F)(F)F)n1)NCc1ccco1`, which Potency is on record?
The Potency was inconclusive [inhibitor, single point].

For `CCOC(=O)CC(=O)CSc1nc2ccccc2c(=O)n1CCc1ccc(S(N)(=O)=O)cc1`, which Potency is on record?
Its Potency is inconclusive [inhibitor, partial curve].

With `Cc1ccsc1/C=N/Nc1ncc(Cl)cc1Cl` as the molecule, how does the Potency read?
Its Potency is inconclusive [inhibitor, single point].

With `O=S(=O)(c1ccc2c(c1)OCCO2)N1CCC(n2cnc3cc(F)ccc32)CC1` as the molecule, how does the Potency read?
Its Potency is inconclusive [inhibitor, partial curve, poor fit].

With `O=[N+]([O-])c1ccc(CNCc2cc(Cl)ccc2O)cc1` as the molecule, how does the Potency read?
The Potency was inconclusive [inhibitor, single point].

Which Potency does the source give for `CCOC(=O)C1CCC(CN(Cc2cccc(Br)c2)S(=O)(=O)c2ccc(Cl)cc2)CC1` (stereo not drawn) here?
Its Potency is active: 29.1 µM.

With `O=C(Nc1ccc(C(F)(F)F)cc1)N1CCN(c2ccnc3cc(Cl)ccc23)CC1` as the molecule, how does the Potency read?
Its Potency is active: 23.1 µM.

For `N#Cc1sc2nc3c(c(-c4ccco4)c2c1N)CCCC3`, which Potency is on record?
Its Potency is inconclusive [inhibitor, single point].

With `O=C(CN1C(=O)NC2(CCc3ccccc32)C1=O)c1ccc(Cl)cc1` (stereo not drawn) as the molecule, how does the “activity change, negative = growth inhibition” value read?
The value was inactive: -8.39%.

With `O=C(c1[nH]c(C(F)(F)F)nc1-c1ccccc1)N1CCN(c2c(Cl)cncc2Cl)CC1` as the molecule, how does the Potency read?
The Potency was inconclusive [inhibitor, single point].

Which Potency does the source give for `COc1ccc(NS(=O)(=O)c2cccc(C(=O)N3CCN(Cc4cc(OC)ccc4OC)CC3)c2)cc1` here?
The Potency was inconclusive [inhibitor, single point].

Which Potency does the source give for `COc1cc(/C=C/CN2CCC(C(=O)NC(c3ccc(F)cc3)c3ccc4ccccc4n3)CC2)ccc1OC(C)=O` (stereo not drawn) here?
The Potency was inconclusive [inhibitor, partial curve, poor fit].

For `COc1ccc(NC(=O)Cn2cc(S(=O)(=O)Cc3ccc(F)cc3)c3ccccc32)cc1OC`, which Potency is on record?
The Potency was inconclusive [inhibitor, partial curve].
